B1: TPR 5TU (parent)
chain: GGAUCUUCUCGAUCUAACAAAAAAGACAAAUCUGCCACAAAGCUUGAGAGCAUCUUCGGAUGCAGAGGCGGCAGCCUUCGGUGGCGCGAUAGCGCCAACGUUCUCAACUAUGACACGCAAAACGCGUGCUCCGUUGAAUGGAGUUUAUCAUG

Variants at the floor of the assay are shown more often than the library holds them. A value given as a limit tells only on which side of the number the result lay.

The variants in the series derive from B1. Kind of series: polymerase ribozyme fitness, log enrichment relative to wild type (log ratio); higher = more active; in vitro selection for triplet polymerase activity. Put shortly:
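Each subunit of a heterodimeric triplet polymerase ribozyme was represented by a PCR-built, transcribed mutant library that underwent triplicate single-round in vitro selection with frozen incubation at −7 °C. Extended constructs were recovered by gel excision, streptavidin-bead capture and RT-PCR, and Illumina sequencing of input and output libraries kept genotypes with ≥10 input reads and ≥1 read per output. Fitness is the logarithm of genotype enrichment relative to wild-type enrichment, from inverse-variance-weighted replicate averages, with a logarithm base of 2.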
As to C38U C79A C95U, the “polymerase ribozyme fitness (log ratio)” value was no more than -4.2.

Consider C38U C125A, for which the “polymerase ribozyme fitness (log ratio)” value is -0.6.

Regarding A39C G68A G80A C118U G128U, the “polymerase ribozyme fitness (log ratio)” value was no more than -4.2.

Turning to C38U U55G A119G, the “polymerase ribozyme fitness (log ratio)” value is -0.675.

As to C38A C57G U77G C79U A91G, the “polymerase ribozyme fitness (log ratio)” value is no more than -4.2.

On to C38U C85G U135C, for which the “polymerase ribozyme fitness (log ratio)” value is no more than -4.2.

In the case of A37U G68U C118A, the “polymerase ribozyme fitness (log ratio)” value was no more than -4.2.

As for C36U A60C C85A C125G U144G, the “polymerase ribozyme fitness (log ratio)” value is no more than -4.2.

With C38U G86A C99G C108A A115U U135A, the “polymerase ribozyme fitness (log ratio)” value is no more than -4.2.

Regarding C38U C95G U102A, the “polymerase ribozyme fitness (log ratio)” value was -2.51.

C38A G92C G94U G112C: the “polymerase ribozyme fitness (log ratio)” value is no more than -4.2.

Consider C38U G68A A97G, for which the “polymerase ribozyme fitness (log ratio)” value was no more than -4.2.

For C36U U55A G86U C96G C149G, the “polymerase ribozyme fitness (log ratio)” value was no more than -4.2.

C38A C72U C75A U144G: the “polymerase ribozyme fitness (log ratio)” value was no more than -4.2.

Take A37U A60U G71C G84A C116A G124C U146G: the “polymerase ribozyme fitness (log ratio)” value is no more than -4.2.

Regarding C36U C38U G83A A121U, the “polymerase ribozyme fitness (log ratio)” value is -1.34.

In the case of C38U A89G, the “polymerase ribozyme fitness (log ratio)” value is -1.07.

C38U C96U G126A G140U A142U: the “polymerase ribozyme fitness (log ratio)” value is no more than -4.2.

As to A37C A47U G71U G84U A115U, the “polymerase ribozyme fitness (log ratio)” value was no more than -4.2.

As for A39G A40G C75G G86A A98G A107G A115U U145A, the “polymerase ribozyme fitness (log ratio)” value is no more than -4.2.

For A39G A49C A121U, the “polymerase ribozyme fitness (log ratio)” value is no more than -4.2.

As for A37C A66G C114U U135A, the “polymerase ribozyme fitness (log ratio)” value is no more than -4.2.

For the variant A39C U77A G83A, the “polymerase ribozyme fitness (log ratio)” value is no more than -4.2.

Turning to A37U C76G C87A G117A G141U G143U, the “polymerase ribozyme fitness (log ratio)” value was no more than -4.2.

On to A39C G94C C96U G136U A138U U144G, for which the “polymerase ribozyme fitness (log ratio)” value was no more than -4.2.

In the case of A37G A64G G80A G88U G143A, the “polymerase ribozyme fitness (log ratio)” value was no more than -4.2.

In the case of A37C A49G C93U, the “polymerase ribozyme fitness (log ratio)” value is -2.86.

Consider C36G C75G C95U C114G U135G A138G G140C, for which the “polymerase ribozyme fitness (log ratio)” value was no more than -4.2.

For the variant A39C G67U C118U A138U, the “polymerase ribozyme fitness (log ratio)” value was no more than -4.2.

For the variant C36U U44G C96G C99G C123U C125G U135C G141A, the “polymerase ribozyme fitness (log ratio)” value is no more than -4.2.

Turning to A39C U55A G59C C87G A120G, the “polymerase ribozyme fitness (log ratio)” value is no more than -4.2.

In the case of C38U G86U C118U, the “polymerase ribozyme fitness (log ratio)” value is -2.07.

Regarding C36A U56G G141U, the “polymerase ribozyme fitness (log ratio)” value was no more than -4.2.

Consider C36U G94A, for which the “polymerase ribozyme fitness (log ratio)” value was -3.52.

C38G G42U G68A U77A C96U G141U: the “polymerase ribozyme fitness (log ratio)” value is no more than -4.2.

As for C36A U45G C79G, the “polymerase ribozyme fitness (log ratio)” value was no more than -4.2.

In the case of A37C G67A C96U C125U G133U G143A, the “polymerase ribozyme fitness (log ratio)” value is no more than -4.2.

Consider C36G U82A G84A U127C C129U G133C, for which the “polymerase ribozyme fitness (log ratio)” value is no more than -4.2.

As to C38A G84A G86C G117U, the “polymerase ribozyme fitness (log ratio)” value is no more than -4.2.

For the variant A37G U55G C85G, the “polymerase ribozyme fitness (log ratio)” value is -3.49.

In the case of C38A U55A A106C G117A U146A, the “polymerase ribozyme fitness (log ratio)” value was -1.67.

On to C38A C75G G94A, for which the “polymerase ribozyme fitness (log ratio)” value was no more than -4.2.

With C36A G88U A150G, the “polymerase ribozyme fitness (log ratio)” value is no more than -4.2.

Turning to C38U G42U G46A A47U A60C C63U G86A, the “polymerase ribozyme fitness (log ratio)” value was no more than -4.2.

For C36U A64C G136A U145C A147C, the “polymerase ribozyme fitness (log ratio)” value was no more than -4.2.

For A37G A47G U53G C54U C87G A106U A122U G141A A142C U144C, the “polymerase ribozyme fitness (log ratio)” value is no more than -4.2.

As to A39C A40C A41C G42C G46U G59C C87A U90G U127G G152U, the “polymerase ribozyme fitness (log ratio)” value is no more than -4.2.

Consider A37C G86A, for which the “polymerase ribozyme fitness (log ratio)” value was -1.34.

In the case of A37C A64G C76A C95U C99A U101C C123A U130G C132U, the “polymerase ribozyme fitness (log ratio)” value is no more than -4.2.

With A39G C57A C87U, the “polymerase ribozyme fitness (log ratio)” value was -1.73.

Regarding A37G A52C A97C, the “polymerase ribozyme fitness (log ratio)” value was -3.67.

For the variant C38A A91G C96G C103A U145G, the “polymerase ribozyme fitness (log ratio)” value is no more than -4.2.

Consider A39C U53A G62C U144A, for which the “polymerase ribozyme fitness (log ratio)” value was no more than -4.2.

Turning to C38G A41G U55A G83A G143A, the “polymerase ribozyme fitness (log ratio)” value was -1.78.

As to A37U G88U C96A, the “polymerase ribozyme fitness (log ratio)” value is no more than -4.2.

Regarding A39C A64U C96U C116A U148C, the “polymerase ribozyme fitness (log ratio)” value was no more than -4.2.

Turning to A39G A60C G67U C99G G143C, the “polymerase ribozyme fitness (log ratio)” value was no more than -4.2.

For C36U G42A C76U G143A, the “polymerase ribozyme fitness (log ratio)” value was no more than -4.2.

For A37U G67A C75U C85U U139G A150G, the “polymerase ribozyme fitness (log ratio)” value was no more than -4.2.

As to C36G U55G A73U C108U C118A G133U, the “polymerase ribozyme fitness (log ratio)” value was -4.17.

As to C36U C43G G46C U144G, the “polymerase ribozyme fitness (log ratio)” value is no more than -4.2.

On to C38U G62A A113G G136A, for which the “polymerase ribozyme fitness (log ratio)” value was -2.45.

With C36A G62C C63U, the “polymerase ribozyme fitness (log ratio)” value is no more than -4.2.

Consider C38U A47C A49C G59U A64U U151C, for which the “polymerase ribozyme fitness (log ratio)” value was no more than -4.2.

Regarding A37C U77A A91U, the “polymerase ribozyme fitness (log ratio)” value is no more than -4.2.

Turning to A37U C96G C116G A138U, the “polymerase ribozyme fitness (log ratio)” value is no more than -4.2.

Take A37U A66U U78G A91G C93U U111G A147C: the “polymerase ribozyme fitness (log ratio)” value is no more than -4.2.

For the variant C38G C123A, the “polymerase ribozyme fitness (log ratio)” value is -0.288.

In the case of C36A U56G C85A, the “polymerase ribozyme fitness (log ratio)” value is no more than -4.2.

For A37U U61A A98U C123U A137U, the “polymerase ribozyme fitness (log ratio)” value is no more than -4.2.

For C38A C85U U90A A147U, the “polymerase ribozyme fitness (log ratio)” value is no more than -4.2.

Take A37C G58C A60C G74C C75U A106G U145C: the “polymerase ribozyme fitness (log ratio)” value is no more than -4.2.

Consider C36U A142G, for which the “polymerase ribozyme fitness (log ratio)” value was -2.16.

As to C38A U53A A60U C93G C131A G141C, the “polymerase ribozyme fitness (log ratio)” value is -3.94.

For C36A G92C C116A G124U, the “polymerase ribozyme fitness (log ratio)” value was no more than -4.2.

C38A U56G C93G C95A: the “polymerase ribozyme fitness (log ratio)” value is no more than -4.2.

Regarding C36U C85U G133A U135C, the “polymerase ribozyme fitness (log ratio)” value is -4.18.

For the variant C38G A60G C76G G81A G84U U102G C116U G128A, the “polymerase ribozyme fitness (log ratio)” value is no more than -4.2.

Take C38U C96G A142U U146A: the “polymerase ribozyme fitness (log ratio)” value is -1.67.

Regarding C36A U55A A66U U144A, the “polymerase ribozyme fitness (log ratio)” value is no more than -4.2.

On to C36U A39C U55A A73U C95A C96A G126C U130G, for which the “polymerase ribozyme fitness (log ratio)” value is no more than -4.2.

A37U G50A A52C U82G C103G: the “polymerase ribozyme fitness (log ratio)” value was no more than -4.2.

As for C38U A49U U61G G83U G133C A142C, the “polymerase ribozyme fitness (log ratio)” value is no more than -4.2.

Consider A37G G48C G50C G65A G74U G84A G100A G126C A147U, for which the “polymerase ribozyme fitness (log ratio)” value is no more than -4.2.
